Results from PubChem BioAssay AID686971 (National Center for Advancing Translational Sciences (NCATS), 2013).
Screen size: about 360,000 compounds; about 7,500 (2.1%) were called active. The shares of active, inactive and inconclusive entries below differ from those in the screen. The call rests on the fitted dose curve; in most records, active means well fitted cell-killing curve with a large enough effect; inconclusive means small, poorly fitted or top-dose-only effect, or effect the other way, or another doubt; inactive means no such curve, though single readings can be large or run the other way. Potencies of inconclusive entries are left out as doubtful fits.
Potency means the concentration at half of the fitted maximal effect; tags describe the fitted curve by direction and shape.

Experiment: qHTS for induction of synthetic lethality in tumor cells producing 2HG: qHTS for the HT-1080-IDH1KD cell line;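 on activity, negative = toxicity: 0% = DMSO wells and -100% = cell-free medium wells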
Settings: HT-1080 IDH1 knockdown viability, ATP luminescence, 48 h; activity, negative = toxicity: at 46.1 µM (top of the series) unless noted
Procedure, shortened: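 Cytotoxicity counter-line: IDH1KD HT-1080, 48 h, CellTiter-Glo. Curves classed by r2, magnitude and activity.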
In the case of CCOc1ccc(NC(=O)c2ccccn2)cc1, the Potency is reported as inconclusive [cytotoxic, single point]. For COc1cccc(-c2nnc(SC(C(=O)c3c[nH]c4ccccc34)c3ccccc3)n2C)c1 (stereo not drawn), the Potency was inconclusive [cytotoxic, single point]. For CCN(CC)CCCNc1ccc(-c2nnc(-c3ccc(OCC(C)C)cc3)o2)cn1, the Potency was inconclusive [cytotoxic, single point]. With COC(=O)c1cccc(NC(=O)NC23CC4CC(CC(C4)C2)C3)c1 the Potency was inconclusive [cytotoxic, single point]. For Cc1nn(-c2ccccc2)c2nc(-c3ccncc3)cc(C(=O)NCc3ccco3)c12, the Potency was inconclusive [cytotoxic, single point]. With O=C(NCc1ccccc1)C(c1ccccc1)n1c(=O)c(-c2cc3ccccc3[nH]2)nc2ccccc21 (stereo not drawn) the Potency was inconclusive [cytotoxic, single point]. With Cc1sc(NC(=O)c2ccco2)nc1-c1ccc2c(c1)CC(C)N2C(=O)C1CC1 (stereo not drawn) the Potency was active: 7.94 µM. With C[C@H](O)C#Cc1ccc2c(c1)O[C@@H](CN(C)Cc1ccc(-c3ccccc3)cc1)[C@H](C)CN([C@@H](C)CO)S2(=O)=O the Potency was active: 20.6 µM. For Nc1c(C(=O)NCc2cccs2)nnn1CC(=O)Nc1cccc(Cl)c1, the Potency was inconclusive [cytotoxic, full curve, poor fit]. In the case of CC(C)(C)c1ccc(OCC(=O)NNC(=S)NC(=O)c2ccccc2[N+](=O)[O-])c(Br)c1, the Potency is reported as active: 18.4 µM. With COc1ccc(C(=O)Nc2cccc(C(=O)NCc3ccccc3)c2)cc1 the activity, negative = toxicity was inconclusive: -32.8% [cytotoxic]. With C[C@@H](NC(=O)OC(C)(C)C)c1nnc(S(=O)(=O)Cc2ccccc2)o1 the Potency was active: 18.4 µM. For CCOc1ccccc1NC(=O)/C=C/C(N)=O, the Potency was active: 2.82 µM. For CCN(C(=O)CCC(=O)N(CC)c1ccccc1)c1ccccc1, the Potency was “inactive”. With O=C(Nc1ccc(Cl)cc1)N1CCCN(c2ccc(C(F)(F)F)cc2[N+](=O)[O-])CC1 the Potency was inconclusive [cytotoxic, single point]. For O=C(Nc1cccc(C(F)(F)F)c1)C1Cc2c(-c3cccc(F)c3)ccnc2O1 (stereo not drawn), the Potency was inconclusive [cytotoxic, single point]. For Cc1ccc(S(=O)(=O)Oc2ccccc2/C=N/NC(N)=S)cc1, the Potency was inconclusive [cytotoxic, partial curve]. For O=C(Nc1cccn(Cc2c(Cl)cccc2Cl)c1=O)c1c(Cl)cccc1Cl, the Potency was “inactive”.
